In the supplement of paper PMC11417369:
Some of the results follow.

These sequences were tested on PfAP2-HC AP2 domain (GST-tagged) (assay: gcPBM binding intensity (ln(normalized median fluorescence intensity)); higher = stronger DNA binding).
Procedure, shortened: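 DNA-binding domains from P. falciparum, fused to GST and produced in E. coli, were put on an Agilent 4 × 180k double-stranded probe array for 1 h in 1× PBS holding 1% milk, 0.2 mg/ml BSA, 0.5% salmon testes DNA and 0.03% Triton X-100. Probes were primer-extended, 36 bp long and drawn from intergenic genomic regions, with negative controls included. After Alexa488 anti-GST antibody detection and a 488 nm scan, binding intensity was set as the highest Masliner-normalised natural-log median intensity across replicate spots of either probe orientation.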

Sequence	gcPBM binding intensity (ln)
ATCAAAATGTTAAAGATACACACCTAACAAACACAA [CACACA_site955]	10.5
TTATATATATAGAAGTGTACAAAATTTCCTAGACCT [XGTACX_site3900]	9.72
TATCGACATTTCATTTGTACATATATACATATATTT [XGTACX_site3346]	9.81
AAGAAAATTAAATTAACACACATAAATATGTAAATA [CACACA_site6882]	10.1
CCAATAATATATAGAAGTACAGAAAAAAAAAAAAAA [XGTACX_site2049]	9.4
CCCTCTTCTCTCATATCACACATGTCATCCTTATCC [CACACA_site5078]	9.87
GAAAAATGAAGAGAACAAAATTTTATGATATATATA [GTGCAC_negctrl_site231]	9.62
TTTCATAAATAAATATGTACATAATTAATAATAAAT [XGTACX_site5882]	9.66
CCTTGAACCCCACTAACACACACACCCACGCTCAGA [CACACA_site8976]	10.2
ATTTCACAGAAACACACACACAATATATTTCCTTTT [CACACA_site3904]	10.4
ATATGTATATATATTTGTACGTAAAATGAAATCTAA [XGTACX_site213]	9.82
TATACATAGATATATACACACATATATTTATATACA [CACACA_site6328]	9.92
ATTACAAAAAAAAAAAAAAAAAAAAAAAAAAAAAAA [CACACA_negctrl_site448]	9.04
ACTTGTAAGAAACACACACACACACCGATATATATA [CACACA_site4594]	11.2
ATTATTTTTTTTCTTATACACACCATGCATCAAACT [CACACA_site2128]	9.79
AAAAATAAGAAAAAGTGTACTTTATTATGTATATAT [XGTACX_site2305]	9.67
AAAAAAAAAAAAAAAACACACATTTAATGAACTTAT [CACACA_site1276]	9.72
ATATATAATCATATGTGTACATATATATTAATTTAA [XGTACX_site2839]	9.67
AATTCAAAATAAAAATGTACATATATCAGAATATGG [XGTACX_site42]	9.66
AAGATACACTTAATCGCACACGAAATTATATATTTA [CACACA_site3063]	9.72
TTTTTTTTTTATGTTATTAAAAAAAAAAAAAATTAA [CACACA_negctrl_site222]	9.03
TATAACATTGTATGAATGCACTTTTATCTATTTTAA [GTGCAC_site9903]	9.73
ATGAGAAAATATATTATTTTATATGAACAAGTTTAT [XGTACX_negctrl_site372]	9.5

Sequence	gcPBM binding intensity (ln)
AATAATGTATGAAATAAACACACAAGTAAGTACATA [CACACA_site8776]	10.3
ATAATTTTAAATAAATGTACATATAGATGTGTGTAA [XGTACX_site3958]	9.82
AAATGTTATATATAATGTACTTGTAAGAACGTTCCT [XGTACX_site2840]	9.58
AAAATTATATATTATAGTACATAAAATATTGATAAA [XGTACX_site8988]	9.67
TGCGACCATAATAAAGCACACAATGAAAAATATATA [CACACA_site256]	9.95
TACAAATTAATATGTACACACAAATATATATATATA [CACACA_site1977]	9.81
ATAATATGAAACTAAGGTACACATATATTAACAGAG [XGTACX_site3842]	9.91
TGTGCTCAAAATTATGCACACACCTAAAATTAATTT [CACACA_site8950]	9.78
TAAGTATACTCATACACACACACACTAGAAAAAAAA [CACACA_site4397]	10.4
AGAGATACATAAAAAAGTACATATAAAATTTAGGAA [XGTACX_site7201]	9.76
TATTTATTTATATACACACACTTGTATAAAAAATGT [CACACA_site7048]	9.92
TTTTTTTTTTTTTATTGTACATGCAAAAAATTCCAC [XGTACX_site2371]	9.4
TTGGGTATTTTGTGCGCACACACATGCAAAAAGAAA [CACACA_site8299]	10.2
GTAAGTATATATAAATGTACTTATGAGGTCAAATTA [XGTACX_site3392]	9.75
ATATATATATATTGTAGTACTTATTAAATTATTTAT [XGTACX_site6235]	9.62
TCTGTATTTCCTTATGCATGCATTAGCAAGATAATA [TGCATGCA_site483]	9.62
TATACATATTTTATAGCACACAAATAATAATATGTA [CACACA_site8129]	9.63
CCAACTATATTATGAAGTACATATATATTATATATA [XGTACX_site5767]	9.51
AAACCTACATAACATACACACGCATATATATAATTT [CACACA_site8923]	10.1
ATATGGGTAATGAATTGTACTCTTTCTTGTTGTTCT [XGTACX_site4487]	9.68
TGTAATAAATAGTACACACACACATATTTATATATC [CACACA_site6770]	10.8
GTATAATTTTCGTATTCACACAAGAATATACTACAT [CACACA_site4877]	9.77
AATATATGTATGTACGCATGTATGTATCTATGTATT [TGCATGCA_site389]	9.76

Sequence	gcPBM binding intensity (ln)
TTATAATTATATACATGTACATATAATACATATATA [XGTACX_site8904]	9.46
ATAATTATATATTTATGTACGCATAAATATTTATAT [XGTACX_site5765]	9.59
ACCCAATTTTAAAATGAACACACATGTTTTTCTTAC [CACACA_site8246]	10
TATTTATTGTGATACTACTATTATTTTATGATTAAA [CACACA_negctrl_site284]	9.49
TTATATTATTTTTAATGTACTTTTTATGAATACAAA [XGTACX_site689]	9.54
TATATATAACTTTATTGTACAAAATATTATGTATTC [XGTACX_site981]	9.66
TTGTTTTATTATTCGATGCACTACAGAAATATATTC	9.62
TATACAACTTTATGAAGTACAAAAAGTTCTATATAT [XGTACX_site3866]	9.51
AACTATATCATTTATTTTATTTTTTAAATACATTTA [CACACA_negctrl_site183]	9.41
GTATATTTATAGCCTTTATTATATTTAATATTATTA [TGCATGCA_negctrl_site26]	9.71
AGAAAAGTTTAATACAGTACATAAACAAAGTATAGG [XGTACX_site2386]	9.79
TATAATATTATATATAAACACACATACACATGTAAA [CACACA_site8631]	9.94
GTTATATTTTTTTATACACACTGGAATATATAAATA [CACACA_site4282]	9.56
TTTATTATTTTTAGGAGTACACAAAATAAAACAAAT [XGTACX_site8841]	9.51
GAAAATACGTTTAATCGTACATATATATAATATATA [XGTACX_site4243]	9.6
ACAAGTTTTTTTTTATCACACACAAAAAAAAAAATA [CACACA_site8377]	9.85
TATTTACCCTCATGTTGTACTTTTCATTCATTTTAT [XGTACX_site7794]	10
ATTAATTATAATGTATGTACATAACTTTTTTATATT [XGTACX_site5784]	9.75
AAAATCATTCCAAAGACATGCATTTTGCAAATAAAA [TGCATGCA_site461]	9.51
TATATTATATACCATTGTACATATAATATAGGTTCT [XGTACX_site7047]	9.56
TCTATAAAGGAATATACACACATATATAAATATGTA [CACACA_site6332]	9.71
AAAAACAGAAATGTAACACACAAAAATTCTATTTAT [CACACA_site4026]	9.86
TTTTGTTATAAATAATGTACATATTTATTTAAAATT [XGTACX_site6610]	9.48

Sequence	gcPBM binding intensity (ln)
TATAAAAATGTGCACACACACACATATTTATATTTA [CACACA_site6826]	10.5
AACCTTTATATGTAAAGTACAAAAAAGAGTAAAAAA [XGTACX_site5506]	9.61
TATATATTTGTAACGGGTACGTAGGTGTATATTCCA [XGTACX_site6028]	9.71
AGCCACGTGGTATATACACACATAATCAAATAAAAT [CACACA_site9364]	10.2
GAAACGATTTAATACACACACGTATTATAGATATAT [CACACA_site6666]	10.1
AATAAGCATATACAAACATGCATACATATAAATAAA [TGCATGCA_site338]	9.8
TTTTTTTTTTTTTTGACACACATAATAAAATACAAA [CACACA_site3080]	9.35
ATAAAACAACACACTTGTACTAATTTTTTTTTTTTT [XGTACX_site8377]	9.75
TAATTTATAAGGTATAACAACAATTGCATCTATCAC [XGTACX_negctrl_site314]	9.61
TGAATAAATAGACACACACACATATATAAATATGTA [CACACA_site6159]	10.7
AAATATTTTAACGAGAGTACATAATAACAATTTATG [XGTACX_site3865]	9.64
GAAAGAATAAAATTTACACACATATATAAATACATA [CACACA_site5273]	9.87
AAAAAAAAAAAATACACACACACATATATATATATA [CACACA_site731]	10.2
TTTTTTTTTTTTTATTGTACTAAATTATAGAGGGGA [XGTACX_site2609]	9.18
TAGTTGCACATGTATACACACAAAAAATATTTTATG [CACACA_site475]	9.87
AAAGAAAGGAATACGACACACAAAAAAAAAATATAT [CACACA_site1934]	10.2
AATAAATATAGGTACACACACAAATATGTACATATC [CACACA_site6976]	10.2
AAGTGGTTATAATCAACACACGTGGAATGTACTTTA [CACACA_site3700]	9.75
AAGAAACCATAATATGCATGCACATATTAATAAATA [TGCATGCA_site693]	9.75
TTATAATTTTAATGTGCACACAATTAAAATATTATA [CACACA_site5172]	9.61
